Among all 55,000 compounds or so, about 340 (0.62%) were called active. Inconclusive results, whose numbers are uncertain, are shown with a selection of clear calls. Calls come from the whole dose curve; as a rule, active = well fitted cell-killing curve with a large enough effect; inconclusive = small, poorly fitted or top-dose-only effect; inactive = no such curve, though single readings can be large or run the other way. Potencies of inconclusive entries are doubtful fits and often do not repeat.
experiment: qHTS Screen for Compounds that Selectively Target Cancer Cells with p53 Mutations: Cytotoxicity of p53 Null Cells at the Permissive Temperature; details: H1299-neo p53 null cells, ATP luminescence, 24 h, 32C; series mostly up to 46.1 µM; activity change, negative = cytotoxicity: at the top concentration; note: nearly all actives have a fitted effect of over 55% in size;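 for activity change, negative = cytotoxicity: 0% = DMSO only and -100% = full killing by 100 µM tamoxifen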
Method in brief: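 Cells lacking p53 (H1299-neo) are plated at 600 per well and allowed to settle overnight at 37C. Test compounds (up to 46 uM) are added and held 24 hours at 32C, then ATP is quantified by luminescence.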
Potency is the fitted concentration of half-maximal effect; tags give direction and shape of the fitted curve.

| SMILES | Potency | activity change, negative = cytotoxicity |
| --- | --- | --- |
| CCOc1ccc(CCNC(=O)CS(=O)(=O)Cc2nc(-c3cccc(Cl)c3)oc2C)cc1 | inconclusive: 5.62 µM [cytotoxic, single point] |  |
| Cc1ccc(Nc2nc(-c3ccccc3)nc3ccccc23)cc1 | inconclusive: 0.316 µM [cytotoxic, full curve, poor fit] |  |
| Cc1cc(C)n(CCc2nc3c4ccccc4nc(SCc4ccc(F)cc4)n3n2)n1 |  | inactive: 10.3% |
| O=C(c1cc2ccc3cccnc3c2[nH]1)N1CCCCC1 | active: 2 µM |  |
| Cc1ccccc1OC(=O)c1cc(-c2ccc3c(c2)OCCO3)on1 | inconclusive: 25.1 µM [cytotoxic, single point] |  |
| CC(=O)c1ccc(N2CCN(C(=O)c3cc(S(=O)(=O)N4CCCCCC4)cn3C)CC2)cc1 | inconclusive: 12.6 µM [cytotoxic, partial curve] |  |
| CCOc1ccc(NC(=O)c2oc3ccccc3c2NC(=O)C(C)(C)C)cc1 | inconclusive: 3.98 µM [cytotoxic, single point] |  |
| O=C(CSc1nnc2[nH]c(=O)cc(-c3ccccc3)n12)Nc1ccc(OC(F)(F)F)cc1 | inconclusive: 3.16 µM [cytotoxic, partial curve] |  |
| c1ccc(-c2nc3c(ccc4ccccc43)[nH]2)nc1 | inconclusive: 15.8 µM [cytotoxic, single point] |  |
| Cc1csc2nc(COC(=O)c3cccc(NC(=O)COc4ccccc4Cl)c3)cc(=O)n12 | inconclusive: 3.98 µM [cytotoxic, partial curve] |  |
| COc1cc(C(=O)NC(c2ccccc2Cl)c2cc(Cl)c3cccnc3c2O)cc(OC)c1OC (configuration not stated) | inconclusive: 0.631 µM [cytotoxic, full curve] |  |
| Cc1ccc(C)c(NC(=O)CSc2nnc3[nH]c(=O)cc(-c4ccccc4)n23)c1 | active: 1.58 µM |  |
| COc1ccc2c(c1)c(=O)c(S(=O)(=O)c1ccc(Cl)cc1)cn2Cc1cc(C)ccc1C | inconclusive: 5.62 µM [cytotoxic, single point] |  |
| CCCCCCNC(=O)CCc1c(C)nc2nc(-c3cc(OC)cc(OC)c3)nn2c1C |  | inactive: -4.75% |
| CCS(=O)(=O)N1CCc2cc(C(=O)Nc3cc([N+](=O)[O-])ccc3C)ccc21 | inconclusive: 0.447 µM [cytotoxic, partial curve, poor fit] |  |
| CC(=O)N1CCc2c(sc3nc(SCC(C)C)n(-c4ccc(C)c(Cl)c4)c(=O)c23)C1 | inconclusive: 31.6 µM [cytotoxic, single point] |  |

| SMILES | Potency | activity change, negative = cytotoxicity |
| --- | --- | --- |
| COc1cc(/C=C(\C#N)c2nc3ccccc3[nH]2)ccc1OCc1ccc(F)cc1 | inconclusive: 31.6 µM [cytotoxic, single point] |  |
| Cc1ccc(NC(=O)CSc2nc3c([nH]c4ccccc43)c(=O)n2-c2ccccc2)cc1Cl | inconclusive: 5.62 µM [cytotoxic, single point] |  |
| O=C(NCCc1csc(-c2ccc(C(F)(F)F)cc2)n1)c1ccc(F)c(F)c1 | inconclusive: 2.51 µM [cytotoxic, single point] |  |
| Cc1ccc(-c2cc(C(=O)NCc3cnn(C)c3C)c3ccccc3n2)cc1C | inconclusive: 10 µM [cytotoxic, partial curve] |  |
| CCc1ccc(NS(=O)(=O)c2ccc3oc(=O)c4ncn(CC)c4c3c2)cc1 | inconclusive: 25.1 µM [cytotoxic, single point] |  |
| COc1ccc(NC(=O)CCS(=O)(=O)c2nc(-c3cccs3)cc(C(F)(F)F)n2)cc1 | inconclusive: 22.4 µM [cytotoxic, single point] |  |
| COc1ccc(C(=O)Nc2cccc(-c3cn4ccsc4n3)c2)c(OC)c1 | inconclusive: 12.6 µM [cytotoxic, partial curve] |  |
| Cc1ccc(-n2c(C)cc(C3=NNC(=NC4CC4)SC3)c2C)cc1C | inconclusive: 10 µM [cytotoxic, partial curve] |  |
| NNC(=O)c1ccc(COc2ccc3c(c2)CCC3)cc1 | inconclusive: 2.24 µM [cytotoxic, partial curve, poor fit] |  |
| COc1ccc(CSc2nc3ccncc3n2CC(=O)Nc2cc(C)cc(C)c2)cc1 | inconclusive: 12.6 µM [cytotoxic, partial curve] |  |
| Cc1n[nH]c(C)c1CCc1nc2c3ccccc3nc(SCC(=O)Nc3ccc(F)cc3)n2n1 | inconclusive: 12.6 µM [cytotoxic, partial curve] |  |
| CC(=O)N1CCc2c(sc3c2c(=O)n(-c2ccccc2Cl)c(=O)n3Cc2cccc(C)c2)C1 |  | inactive: 14.5% |
| O=C(Cn1cc(S(=O)(=O)N2CCCC2)c(S(=O)(=O)N2CCCC2)c1)Nc1ccc(F)cc1 |  | inactive: 10.1% |
| CCc1ccc(C(=O)c2cn(CC(=O)Nc3cc(OC)ccc3OC)c3ccc(Cl)cc3c2=O)cc1 | inconclusive: 3.16 µM [cytotoxic, single point] |  |
| N/C(=N\OC(=O)c1ccccc1Cl)c1cccnc1 | inconclusive: 22.4 µM [cytotoxic, single point] |  |
| CCc1ccc(CNC(=O)C2CCN(c3nnc(C)c4c(C)n(-c5ccc(C)cc5)nc34)CC2)cc1 | inconclusive: 20 µM [cytotoxic, single point] |  |

Source: PubChem BioAssay AID903 (National Center for Advancing Translational Sciences (NCATS), 2007)
